Test results from article PMC12622447.
These are yes or no findings as the source states them, for the method shown. Binding seen in cells or lysates may run through a third protein. Some binding calls cover weakened binding; strength is not graded here.

The chains behind the UniProt entries cited, without tags or fusion partners. Where a name states a change or a piece, a line headed by the entry shows the natural chain unless it says otherwise. A line that says so, or that is headed by a name, gives the form on record, which may keep a tag or linker. Residues count along the entry.
UniProt P60842: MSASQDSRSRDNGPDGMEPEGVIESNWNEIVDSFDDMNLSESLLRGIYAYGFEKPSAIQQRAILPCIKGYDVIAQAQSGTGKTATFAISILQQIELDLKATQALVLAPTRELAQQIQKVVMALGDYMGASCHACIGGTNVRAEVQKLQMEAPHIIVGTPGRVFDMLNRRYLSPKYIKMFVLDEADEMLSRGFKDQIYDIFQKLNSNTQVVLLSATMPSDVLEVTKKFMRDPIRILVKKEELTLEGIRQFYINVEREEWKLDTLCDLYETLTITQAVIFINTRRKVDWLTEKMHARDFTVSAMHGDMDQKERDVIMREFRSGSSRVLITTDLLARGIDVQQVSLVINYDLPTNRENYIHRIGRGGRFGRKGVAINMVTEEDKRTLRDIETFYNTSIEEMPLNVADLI
UniProt P06730: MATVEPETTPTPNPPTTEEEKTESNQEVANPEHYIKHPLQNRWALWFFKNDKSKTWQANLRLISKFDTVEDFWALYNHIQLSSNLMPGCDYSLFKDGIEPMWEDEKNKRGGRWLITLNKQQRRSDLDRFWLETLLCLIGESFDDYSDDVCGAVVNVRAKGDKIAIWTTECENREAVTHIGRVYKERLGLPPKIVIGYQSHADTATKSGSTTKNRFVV
UniProt Q99816: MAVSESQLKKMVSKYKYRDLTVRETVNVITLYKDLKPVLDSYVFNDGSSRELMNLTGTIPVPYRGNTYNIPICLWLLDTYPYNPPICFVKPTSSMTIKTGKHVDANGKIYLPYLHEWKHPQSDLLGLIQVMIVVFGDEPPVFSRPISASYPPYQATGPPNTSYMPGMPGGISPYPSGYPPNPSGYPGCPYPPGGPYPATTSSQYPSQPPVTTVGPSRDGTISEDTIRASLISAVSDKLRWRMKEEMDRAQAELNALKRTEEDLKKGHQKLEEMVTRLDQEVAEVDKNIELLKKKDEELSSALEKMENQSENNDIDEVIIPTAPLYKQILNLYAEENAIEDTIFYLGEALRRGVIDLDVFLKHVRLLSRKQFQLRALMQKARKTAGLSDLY
TSG101-UEV-GFP: residues 2-145 of Q99816
TSG101-UEV M95A mutant (Q99816, form named): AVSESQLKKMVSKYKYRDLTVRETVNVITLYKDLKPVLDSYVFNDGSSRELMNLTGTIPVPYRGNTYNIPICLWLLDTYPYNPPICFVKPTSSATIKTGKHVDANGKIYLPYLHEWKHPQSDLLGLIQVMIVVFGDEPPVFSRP
TSG101-UEV N45A mutant (Q99816, form named): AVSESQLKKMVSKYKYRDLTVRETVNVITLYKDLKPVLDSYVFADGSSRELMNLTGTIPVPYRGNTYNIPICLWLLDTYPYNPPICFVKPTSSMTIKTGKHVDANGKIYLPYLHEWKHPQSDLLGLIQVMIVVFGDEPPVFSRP

Experiments:
[1] = biological target: eIF4A1-GFP fusion protein (UniProt P60842); test: co-IP; GFP-Trap: cleared lysates of OVCAR8 cells stably expressing GFP fusion proteins or TSG101 variants incubated with GFP-nanobody agarose; beads washed with ice-cold Co-IP washing buffer, eluted by boiling, western blotting
eIF4E-GFP fusion protein = eIF4E-GFP fusion protein (UniProt P06730); test: as above
TSG101-UEV-GFP = TSG101-UEV-GFP (UniProt Q99816); test: as above
TSG101-UEV M95A mutant = TSG101-UEV M95A mutant (UniProt Q99816); test: as above
[2] = biological target: TSG101-GFP fusion protein (UniProt Q99816); test: as above
TSG101-UEV N45A mutant = TSG101-UEV N45A mutant (UniProt Q99816); test: as above
[3] = biological target: TSG101 (ESCRT-I component) (human (endogenous in OVCAR8)) (UniProt Q99816); test: proximity ligation; DuoLink In Situ Red kit Mouse/Rabbit on fixed OVCAR8 cells; primary antibodies for eIF4E, eIF4A1 and TSG101 overnight at 4 °C; confocal microscopy, red dots counted

| Substance | binding [1] | binding (eIF4E-GFP fusion protein) | binding (TSG101-UEV-GFP) | binding (TSG101-UEV M95A mutant) | binding [2] | binding (TSG101-UEV N45A mutant) | binding [3] |
| --- | --- | --- | --- | --- | --- | --- | --- |
| TSG101 (ESCRT-I component) (from UniProt Q99816 1-390) | binds | binds |  |  |  |  |  |
| eIF4A1 (from UniProt P60842 1-406) |  |  | binds | binds | binds | no binding | binds |
| eIF4E (from UniProt P06730 1-217) |  |  | binds | binds | binds | no binding | binds |
